# From the supplement of paper PMC8728848
# Some of the results follow.
# B1: SP16664D-bth-476-27-476 (Bacteroides thetaiotaomicron) (protein)
# chain: DDLEVGKNIDESAYSGIYENNAYLRDGKSNLVSKVVELHGETYATTVKMGLSKTPNTATSAKVKIDAAYLETYNKAHNTDFALYPQDLVTFANEGILTVNANTKSAEVEMTIRAGEGLQEDKTYAIPVAISDQSSDITIKDEDAKHCIYLVKDMRNAGDAYKGEGVMQGYLFFEVNDVNPLNTLSFQLENGKLLWDVVVLFAANINYDAEAGRPRVQCNPNVQYLLDNNETLLQPLRRRGVKVLLGLLGNHDITGLAQLSEQGAKDFAREVAQYCKAYNLDGVNYDDEYSNSPDLSNPSLTNPSTAAAARLCYETKQAMPDKLVTVFDWGQMYGVATVDGVDAKEWIDIVVANYGSAAYPIGQMTKKQCSGISMEFNLGGGGSLSASKAQSMIDGGYGWFMGFAPSPAKYGSVFSRLQGGGEVLYGSNVAAPTIFYKKNDPTPYKYPDDL
# How the values were obtained:
# Experiment in all cases: glycan array binding signal (z-score within array); higher = stronger binding
# Conditions in all cases: glycan notation: IUPAC condensed, linker removed
# [1] = target: Fuc(a1-3)[Gal3S(b1-4)]GlcNAc6S
# Procedure, shortened: (§1)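 Arrays were curated from the Consortium for Functional Glycomics database, 3228 in total, and kept only where the protein sequence was available. Binding is expressed as a within-array Z-score. This score was averaged across arrays of the same protein sequence at different concentrations or buffers and across linkers, and negative values can be read as non-binding.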
# [2] = target: Fuc(a1-3)[GalNAc(b1-4)]GlcNAc
# Procedure, shortened: as §1
# [3] = target: Fuc(a1-3)[GalNAc(b1-4)]GlcNAc6S
# Procedure, shortened: as §1
# Fuc(a1-4)GlcNAc = target: Fuc(a1-4)GlcNAc
# Procedure, shortened: as §1
# Fuc(b1-3)GlcNAc = target: Fuc(b1-3)GlcNAc
# Procedure, shortened: as §1
# Gal(a1-2)Gal = target: Gal(a1-2)Gal
# Procedure, shortened: as §1
# Gal(a1-3)Gal = target: Gal(a1-3)Gal
# Procedure, shortened: as §1
# Gal(a1-3)Gal(b1-3)GlcNAc = target: Gal(a1-3)Gal(b1-3)GlcNAc
# Procedure, shortened: as §1
# [4] = target: Gal(a1-3)Gal(b1-3)GlcNAc(b1-2)Man
# Procedure, shortened: as §1
# [5] = target: Gal(a1-3)Gal(b1-3)GlcNAc(b1-2)Man(a1-3)[Gal(a1-3)Gal(b1-3)GlcNAc(b1-2)Man(a1-6)]Man(b1-4)GlcNAc(b1-4)GlcNAc
# Procedure, shortened: as §1
# [6] = target: Gal(a1-3)Gal(b1-3)GlcNAc(b1-3)GalNAc
# Procedure, shortened: as §1
# [7] = target: Gal(a1-3)Gal(b1-3)GlcNAc(b1-6)GalNAc
# Procedure, shortened: as §1
# [8] = target: Gal(a1-3)Gal(b1-3)[Fuc(a1-4)]GlcNAc(b1-2)Man(a1-3)[Gal(a1-3)Gal(b1-3)[Fuc(a1-4)]GlcNAc(b1-2)Man(a1-6)]Man(b1-4)GlcNAc(b1-4)GlcNAc
# Procedure, shortened: as §1
# Gal(a1-3)Gal(b1-4)Glc = target: Gal(a1-3)Gal(b1-4)Glc
# Procedure, shortened: as §1
# Gal(a1-3)Gal(b1-4)GlcNAc = target: Gal(a1-3)Gal(b1-4)GlcNAc
# Procedure, shortened: as §1
# [9] = target: Gal(a1-3)Gal(b1-4)GlcNAc(b1-2)Man
# Procedure, shortened: as §1
# [10] = target: Gal(a1-3)Gal(b1-4)GlcNAc(b1-2)Man(a1-3)[Gal(a1-3)Gal(b1-4)GlcNAc(b1-2)Man(a1-6)]Man(b1-4)GlcNAc(b1-4)GlcNAc
# Procedure, shortened: as §1
# [11] = target: Gal(a1-3)Gal(b1-4)GlcNAc(b1-3)GalNAc
# Procedure, shortened: as §1
# [12] = target: Gal(a1-3)Gal(b1-4)GlcNAc(b1-6)GalNAc
# Procedure, shortened: as §1
# [13] = target: Gal(a1-3)Gal(b1-4)[Fuc(a1-3)]GlcNAc
# Procedure, shortened: as §1
# [14] = target: Gal(a1-3)Gal(b1-4)[Fuc(a1-3)]GlcNAc(b1-2)Man(a1-3)[Gal(a1-3)Gal(b1-4)[Fuc(a1-3)]GlcNAc(b1-2)Man(a1-6)]Man(b1-4)GlcNAc(b1-4)GlcNAc
# Procedure, shortened: as §1
# Gal(a1-3)GalNAc = target: Gal(a1-3)GalNAc
# Procedure, shortened: as §1
# [15] = target: Gal(a1-3)[Gal(a1-4)]Gal(b1-4)GlcNAc
# Procedure, shortened: as §1
# [16] = target: Gal(a1-4)Gal(b1-3)GlcNAc(b1-2)Man(a1-3)[Gal(a1-4)Gal(b1-3)GlcNAc(b1-2)Man(a1-6)]Man(b1-4)GlcNAc(b1-4)GlcNAc
# Procedure, shortened: as §1
# Gal(a1-4)Gal(b1-4)Glc = target: Gal(a1-4)Gal(b1-4)Glc
# Procedure, shortened: as §1
# Gal(a1-4)Gal(b1-4)GlcNAc = target: Gal(a1-4)Gal(b1-4)GlcNAc
# Procedure, shortened: as §1
# [17] = target: Gal(a1-4)Gal(b1-4)GlcNAc(b1-2)Man(a1-3)[Gal(a1-4)Gal(b1-4)GlcNAc(b1-2)Man(a1-6)]Man(b1-4)GlcNAc(b1-4)GlcNAc
# Procedure, shortened: as §1
# [18] = target: Gal(a1-4)Gal(b1-4)GlcNAc(b1-3)Gal(b1-4)Glc
# Procedure, shortened: as §1
# Gal(a1-4)GlcNAc = target: Gal(a1-4)GlcNAc
# Procedure, shortened: as §1
# Gal(a1-6)Glc = target: Gal(a1-6)Glc
# Procedure, shortened: as §1
# Gal(b1-2)Gal = target: Gal(b1-2)Gal
# Procedure, shortened: as §1
# Gal(b1-3)Gal = target: Gal(b1-3)Gal
# Procedure, shortened: as §1
# Gal(b1-3)Gal(b1-4)GlcNAc = target: Gal(b1-3)Gal(b1-4)GlcNAc
# Procedure, shortened: as §1
# Gal(b1-3)GalNAc = target: Gal(b1-3)GalNAc
# Procedure, shortened: as §1
# [19] = target: Gal(b1-3)GalNAc(a1-3)[Fuc(a1-2)]Gal(b1-4)Glc
# Procedure, shortened: as §1
# [20] = target: Gal(b1-3)GalNAc(a1-3)[Fuc(a1-2)]Gal(b1-4)GlcNAc
# Procedure, shortened: as §1
# Gal(b1-3)GalNAc(b1-3)Gal = target: Gal(b1-3)GalNAc(b1-3)Gal
# Procedure, shortened: as §1
binder,measurement,setting,value
B1,glycan array binding signal (z-score),[1],0.051
same,glycan array binding signal (z-score),[2],0.226
same,glycan array binding signal (z-score),[3],0.153
same,glycan array binding signal (z-score),Fuc(a1-4)GlcNAc,5.19
same,glycan array binding signal (z-score),Fuc(b1-3)GlcNAc,-0.141
same,glycan array binding signal (z-score),Gal(a1-2)Gal,-0.178
same,glycan array binding signal (z-score),Gal(a1-3)Gal,0.512
same,glycan array binding signal (z-score),Gal(a1-3)Gal(b1-3)GlcNAc,0.314
same,glycan array binding signal (z-score),[4],0.085
same,glycan array binding signal (z-score),[5],-0.009
same,glycan array binding signal (z-score),[6],-0.337
same,glycan array binding signal (z-score),[7],-0.009
same,glycan array binding signal (z-score),[8],-0.145
same,glycan array binding signal (z-score),Gal(a1-3)Gal(b1-4)Glc,-0.117
same,glycan array binding signal (z-score),Gal(a1-3)Gal(b1-4)GlcNAc,-0.212
same,glycan array binding signal (z-score),[9],-0.136
same,glycan array binding signal (z-score),[10],0.219
same,glycan array binding signal (z-score),[11],-0.12
same,glycan array binding signal (z-score),[12],-0.225
same,glycan array binding signal (z-score),[13],-0.017
same,glycan array binding signal (z-score),[14],-0.18
same,glycan array binding signal (z-score),Gal(a1-3)GalNAc,0.453
same,glycan array binding signal (z-score),[15],0.109
same,glycan array binding signal (z-score),[16],-0.227
same,glycan array binding signal (z-score),Gal(a1-4)Gal(b1-4)Glc,-0.388
same,glycan array binding signal (z-score),Gal(a1-4)Gal(b1-4)GlcNAc,-0.17
same,glycan array binding signal (z-score),[17],-0.016
same,glycan array binding signal (z-score),[18],-0.292
same,glycan array binding signal (z-score),Gal(a1-4)GlcNAc,0.125
same,glycan array binding signal (z-score),Gal(a1-6)Glc,-0.295
same,glycan array binding signal (z-score),Gal(b1-2)Gal,-0.289
same,glycan array binding signal (z-score),Gal(b1-3)Gal,-0.191
same,glycan array binding signal (z-score),Gal(b1-3)Gal(b1-4)GlcNAc,0.095
same,glycan array binding signal (z-score),Gal(b1-3)GalNAc,-0.171
same,glycan array binding signal (z-score),[19],-0.047
same,glycan array binding signal (z-score),[20],-0.433
same,glycan array binding signal (z-score),Gal(b1-3)GalNAc(b1-3)Gal,-0.348
